Out of some 50,000 compounds screened, about 800 (1.6%) showed an effect of 50% or more. The list shows a part of the results.

In the assay the target is Bcl-2-like protein 10 (Homo sapiens) (UniProt Q9HD36). In words: Phenotype converters, Bcl-B/TR3 peptide binding displacement, primary biochemical FP (AID 1240).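 Further: 0% = Bcl-B with tracer peptide and DMSO and 100% = tracer peptide lacking Bcl-B.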 To be noted: GST-Bcl-B / FITC-TR3 peptide fluorescence polarization; stronger effect = higher value; compound at 3.75 mg/L. (In general: Fluorescence polarisation rises when a labelled molecule tumbles more slowly, as on binding a larger partner.)
Sequence of UniProt Q9HD36 (Q9HD36 whole entry, looked up): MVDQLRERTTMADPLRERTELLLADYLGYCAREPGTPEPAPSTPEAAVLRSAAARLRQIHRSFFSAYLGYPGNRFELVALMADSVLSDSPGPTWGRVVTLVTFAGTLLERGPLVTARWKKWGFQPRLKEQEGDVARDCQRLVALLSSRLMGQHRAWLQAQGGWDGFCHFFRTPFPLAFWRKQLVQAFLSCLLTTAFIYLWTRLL
`Cc1ccc(C(=O)Nc2cccc(NC(=O)c3cccc(Cl)c3)c2)cc1`: the displacement is -0.2%.
`Cc1ccc(NC(=O)/C(=C\c2ccco2)NC(=O)c2ccccc2I)cc1`: the displacement amounted to 3.4%.
Turning to `CCOC(=O)C1=C(C)NC(=O)NC1c1cc(Br)c(O)c(OC)c1` (stereo not given), the displacement is 0.6%.
In the case of `Cc1cc(C(=O)N/N=C/c2c(Cl)cccc2Cl)n[nH]1`, the displacement was -5.4%.
Consider `COc1ccc(S(=O)(=O)N2CCN(Cc3ccccc3C(F)(F)F)CC2)cc1`, for which the displacement was 8.1%.
As to `CC1=NNC(=O)C1CCC(=O)N/N=C/C(Br)=C/c1ccccc1` (stereo not given), the displacement is -8.4%.
With `COc1ccc(N2C(=O)C3C(c4ccccc4Cl)OC4(C(=O)c5ccccc5C4=O)C3C2=O)c(OC)c1` (stereo not given), the displacement was 12.5%.
Then `O=C(CN1C(=O)/C(=C/c2ccccc2)SC1=S)Nc1cc([N+](=O)[O-])ccc1O`, with 9.6%; and `O=C(/C=C/c1ccccc1)N1CCN(c2ccc(Cl)cc2)CC1`, with -9.3%.
With `COc1ccc(-c2cc(C(=O)NCc3ccc(C)cc3)c3ccccc3n2)cc1`, the displacement was -4.4%.
Then `CCOc1cc(/C=C2/SC(N)=NC2=O)ccc1OCc1ccc(F)cc1`, with -15.9%; and `Cc1nc(CN2C(=O)c3ccccc3C2=O)cs1`, with -3.5%; and `CCN1C(=O)/C(=C/c2c(F)cccc2Cl)SC1=S`, with 8.8%.
As for `C=CCN1C(=O)OC2(CCCCC2)C1(C)O` (stereo not given), the displacement is -2.5%.
Then `Cc1nn(C(CC(=O)O)C(=O)O)c(C)c1I` (stereo not given), with -2.7%; and `COc1ccc(/C=C/C(=O)C2(C)CCCCC2)cc1`, with -6.5%; and `CCOC(=O)c1c(NC(=O)COC(=O)C(CCSC)NC(C)=O)sc2c1CCCC2` (stereo not given), with 12.2%.
As for `CCOC(=O)c1ccc(NC(=O)CN(c2cccc(C(F)(F)F)c2)S(C)(=O)=O)cc1`, the displacement was -6.2%.
In the case of `CCOC(=O)c1c[nH]n(-c2nc(-c3ccccc3)cs2)c1=O`, the displacement turned out to be 7.3%.
As to `Cc1ccc(C2(c3ccc(C)cc3)CC2C(=O)Nc2ccccc2[N+](=O)[O-])cc1` (stereo not given), the displacement was determined as 11.2%.
On to `O=C(NCCOc1ccccc1)c1cccc(C(=O)NCCOc2ccccc2)c1`, for which the displacement was 8.1%.
On to `COC(=O)c1ccc(COc2cc3oc(=O)cc(-c4ccccc4)c3cc2Cl)cc1`, for which the displacement turned out to be 8.1%.
Then `CCOC(=O)C(=CNc1ccccc1O)C(=O)OCC`, with -0.7%; and `O=C(O)CCCCCN1C(=O)C(=O)/C(=C(/O)c2ccc(F)cc2)C1c1ccc(F)cc1` (stereo not given), with -1.5%; and `C/C(=N/NC(=O)c1ccccc1)c1ccc2c3c(cccc13)CC2`, with -11.5%.
Take `Cc1ccc(NC(=O)C2CC(=O)N(c3ccc(Br)cc3)C2)cc1Cl` (stereo not given): the displacement is 9.4%.
Then `CCOc1cc(/C=C2/C=C(c3ccc(OC)cc3)OC2=O)cc(I)c1OC`, with -6%.
For `O=C(Nc1sc2c(c1C(=O)O)CCCCC2)c1ccccc1F`, the displacement is -9.2%.
Regarding `Cc1cc(/C=N/NC(N)=S)c(C)n1C1CCCCC1`, the displacement was -10.3%.
As to `COc1ccccc1Cc1noc(-c2ccc(Cl)cc2)n1`, the displacement amounted to 4.9%.
Regarding `O=C(Nc1ccncc1)c1ccc2c(c1)OCCO2`, the displacement came to 12.1%.
As for `C#CCOc1ccc(C2C(C(=O)OC)=C(C)NC3=C2C(=O)c2ccccc23)cc1` (stereo not given), the displacement was determined as 4.9%.
As to `Cc1cc(=O)[nH]c(N/N=C/c2ccccc2[N+](=O)[O-])n1`, the displacement was -6.5%.
For the compound `Cc1ccc(-c2cc3nc(C)cc(C)n3n2)cc1`, the displacement stood at 8.2%.
Then `CC(C)COc1ccc(C(=O)NCCc2c[nH]c3ccccc23)cc1`, with 0.1%; and `O=C(COc1ccc(Cl)cc1)NNC(=O)C(=O)N1CCCCC1`, with -8.4%.
Then `COc1ccc(NC(=O)c2sc3cc(C)ccc3c2Cl)cc1`, with 3.5%.
Then `CC(C)(C)c1ccc(OCC(=O)NNC(=O)C(=O)N2CCCC2)cc1`, with -20%.
In the case of `O=C(Nc1ccc(Cc2ccncc2)cc1)c1cccc([N+](=O)[O-])c1`, the displacement turned out to be 13.6%.
Then `CCOc1ccc(C(=O)Nc2ccc3oc(-c4ccc(OC)c(Cl)c4)nc3c2)cc1`, with 4.6%; and `COC(=O)C1=C(C)N(c2cccc(C)c2)C(=O)/C1=C\c1ccc(O)cc1`, with -3.2%; and `O=C(O)C(Cc1ccccc1)N1C(=O)/C(=C/c2ccccc2Cl)SC1=S` (stereo not given), with 5.2%.
Then `CC(C(=O)NCCc1ccccc1)N1C(=O)c2ccccc2C1=O` (stereo not given), with 3.3%; and `O=C1C(=O)N(c2cccnc2)C(c2ccc([N+](=O)[O-])cc2)/C1=C(\O)c1ccc(Cl)cc1` (stereo not given), with -12.7%; and `COc1ccc(CN2CCN(C(=O)c3ccc(F)cc3)CC2)cc1OCc1ccccc1`, with 12.7%.
For `CC1=C(C(=O)OC2CCCC2)C(c2ccc(I)cc2)C2=C(CC(C)(C)CC2=O)N1` (stereo not given), the displacement is -2.3%.
For the compound `CC(C)C(=O)NNC(=O)COc1ccc(Cl)cc1`, the displacement was -6.7%.
Regarding `CCOc1ccccc1NC(=O)c1c(NC(=O)c2ccco2)sc2c1CCC(C)C2` (stereo not given), the displacement is -7.1%.
Then `CC(=O)NS(=O)(=O)c1ccc(NC(=O)c2ccc([N+](=O)[O-])cc2)cc1`, with -13.3%; and `CC(C)(C)C1=CC(=Nc2ccc3c(c2)OCCO3)C=C(C(C)(C)C)C1=O`, with -0.3%; and `CCc1ccc(N2CC(C(=O)Nc3ccc(Cl)cc3Cl)CC2=O)cc1` (stereo not given), with 9.5%.
For `CC1=C(C(=O)OCC(Cl)(Cl)Cl)C(c2ccccc2F)NC(=O)N1` (stereo not given), the displacement was 7.8%.
Regarding `CCOc1ccccc1NC(=O)c1c(NC(=O)Cc2ccc(OC)cc2)sc2c1CCC(C)C2` (stereo not given), the displacement is -3.9%.
Regarding `C=CCNCCCCOc1cc(C)c(Cl)c(C)c1`, the displacement was determined as 4.8%.
`O=C(Nc1ccc(I)cc1Cl)C(c1ccccc1)c1ccccc1`: the displacement is -5.2%.
With `Cc1ccc(S(=O)(=O)N/N=C/c2ccccc2OS(=O)(=O)c2ccc([N+](=O)[O-])cc2)cc1`, the displacement is -9.6%.
In the case of `COc1ccc(Br)cc1CN1CCN(Cc2ccncc2)CC1`, the displacement was -16.3%.
Regarding `CCOc1ccc(NC(=O)CN(c2ccc(Cl)cc2)S(C)(=O)=O)cc1`, the displacement came out at 2.8%.
`COc1ccc(/C(C)=N\NC(=O)c2ccc([N+](=O)[O-])cc2)cc1OC`: the displacement is 6.7%.
For the compound `O=C(O)CCN1C(=O)/C(=C/c2cccc3ccccc23)SC1=S`, the displacement came to 22.4%.
For `O=[N+]([O-])c1ccc(Oc2ccc(S(=O)(=O)Nc3ccccn3)cc2)cc1`, the displacement amounted to 1.7%.
With `Cn1c(=O)c2c(ncn2CC(=O)N2CCc3ccccc3C2)n(C)c1=O`, the displacement is -1%.
As to `Cc1cc([N+](=O)[O-])ccc1-c1ccc(CO)o1`, the displacement stood at 12.9%.
As to `CC12c3ccccc3C(c3ccccc31)C1C(=O)N(Cc3cccnc3)C(=O)C12` (stereo not given), the displacement is -9.9%.
In the case of `O=c1oc(-c2ccco2)nc2ccc(Cl)cc12`, the displacement was found to be 13.6%.
Take `S=C(c1cccc(OCc2ccccc2)c1)N1CCOCC1`: the displacement was 11%.
Then `CCN(CCN)c1ccc2c(=O)[nH][nH]c(=O)c2c1`, with 6.8%; and `Cc1ccc(OCCCCN2CCC(C)CC2)cc1C`, with -7.7%.
Then `O=C(CN(c1ccccc1)S(=O)(=O)c1ccccc1)NCc1ccncc1`, with 12.9%; and `COc1cccc(C(=O)Nc2ccc(Br)cc2C(=O)O)c1`, with 13.1%; and `CCc1ccc(-c2csc(N3N=C(c4cccs4)CC3c3ccc(F)cc3)n2)cc1` (stereo not given), with 0.2%.
As to `CC(C)c1ccc(NC(=O)C(=O)NCCCO)cc1`, the displacement was -10.4%.
Consider `O=C(COc1ccc(Cl)cc1)Nc1nc(-c2ccc(Cl)cc2)cs1`, for which the displacement came to 8.6%.
Take `CN(C1=NC(=O)/C(=C\c2ccc(F)cc2)S1)c1ccc(O)cc1`: the displacement stood at 11.4%.
For the compound `COC(=O)c1ccc(-c2ccc(/C=C3/SC(=S)N(Cc4ccccc4)C3=O)o2)cc1`, the displacement was found to be 7.1%.
`Cc1ccc(C2CC(C(F)(F)F)n3nc(C(=O)Nc4ccc(C(C)O)cc4)cc3N2)cc1` (stereo not given): the displacement is 1.8%.
Regarding `OCC1(CO)COC(c2ccccc2)=N1`, the displacement came to 9%.
Regarding `Cc1cc(Cl)ccc1OCC(=O)Nc1ccccc1CO`, the displacement was found to be 8.1%.
For the compound `CCOC(=O)C1=NN(C(=O)Cc2ccccc2)C(O)(c2ccc(Cl)cc2)C1` (stereo not given), the displacement was -6.4%.
Then `Brc1ccc2c(c1)Nc1nc3nonc3nc1N2`, with 3.9%.
In the case of `C=C(C)c1cccc(C(C)(C)NC(=O)N2CCc3ccccc32)c1`, the displacement is -1.6%.
As for `CS(=O)(=O)N(Cc1ccc(Cl)cc1)c1ccc(C(=O)Nc2ccc(Cl)cc2)cc1`, the displacement was -7.1%.
On to `Oc1ccccc1C1OCC2(CO1)COC(c1ccccc1O)OC2` (stereo not given), for which the displacement was 3%.
On to `CCSc1nc2ccc(N)cc2s1`, for which the displacement amounted to 2.8%.
`O=C(Nc1ccccc1C1CC1)c1ccccc1`: the displacement amounted to 2.8%.
As to `CC(C)(O)C#Cc1ccc(C(=O)Nc2ccc(F)cc2)cc1`, the displacement was found to be 3.9%.
With `CC1=C(C(=O)OCCc2ccccc2)C(c2ccc(C)s2)NC(=O)N1` (stereo not given), the displacement is -9.8%.
Then `CCOC(=O)C(NS(=O)(=O)c1ccc2c(c1)Cc1ccccc1-2)C(O)c1ccccc1` (stereo not given), with -1.6%.
Then `CCN(CC)CCN1C(=O)c2ccccc2NC1c1cccc(F)c1` (stereo not given), with 10.7%; and `COc1cc(NC(=O)COc2ccc(Br)cc2)cc(OC)c1`, with 0%.
Then `COc1ccc2oc(=O)c(C(=O)Nc3cc(Cl)ccc3OC)cc2c1`, with 5.9%; and `COc1ccc(NC(=O)COc2ccc(Cl)cc2Cl)c([N+](=O)[O-])c1`, with -12.6%.
With `O=C(CCCCCCCCC(=O)N/N=C/C1CC=CCC1)N/N=C/C1CC=CCC1` (stereo not given), the displacement turned out to be 5.6%.
Then `CC(=O)COc1ccc2c(c1)oc(=O)c1ccccc12`, with 10%.
Then `O=C(N/N=C/c1ccc(F)cc1)c1cc(Cl)cc(Cl)c1O`, with 2.2%.
As to `O=C(Nc1cccc(NC(=O)c2ccccc2Cl)c1)c1ccc2c(c1)OCCO2`, the displacement is -2.7%.
Then `COc1ccc(S(=O)(=O)N(CC(=O)NCc2ccco2)c2cc(C)cc(C)c2)cc1OC`, with -3%; and `COc1cc(C(=O)NCc2ccncc2)cc(OC)c1OC`, with -4%.
Then `Cn1c(=O)c(-c2nc3ccccc3[nH]2)c(O)c2ccccc21`, with 4.4%; and `Cc1ccc(-c2csc(NC(=O)c3sc4cc(C)ccc4c3Cl)n2)cc1`, with -6.8%.
Consider `O=C(N/C(=C\c1cccc([N+](=O)[O-])c1)C(=O)N1CCOCC1)c1cccs1`, for which the displacement was -6.6%.
Take `Cc1ccc(CN2CCN(C3CCCC3)CC2)cc1`: the displacement was -13.5%.
Then `O=C(NCc1ccccc1Cl)c1ccccc1I`, with 4.5%.
Then `CCc1c(C)nc2cc(-c3cccs3)[nH]n2c1=O`, with 6.3%; and `COc1ccc(C(=O)N2CCN(Cc3cccc(Cl)c3)CC2)cc1OC`, with -11.5%.
In the case of `CCCOc1ccc(C(=O)Nc2ccc(Cl)cn2)cc1`, the displacement came to 13.2%.
As to `COc1ccc(NC(=O)CCc2ccccc2)cc1`, the displacement was found to be 3.9%.
Regarding `Cc1ccccc1N1C(=O)/C(=C\c2ccc(F)cc2)SC1=S`, the displacement is 10.5%.
Then `C/C(=N\NC(=O)c1cc(C)[nH]n1)c1ccc(Br)cc1`, with -6%; and `O=C(Nc1ccc(Cl)cc1)c1cc(Cl)ccc1[N+](=O)[O-]`, with 7.1%.

The values are drawn from PubChem BioAssay AID1240 (Sanford-Burnham Center for Chemical Genomics, 2008).
